Laboratory results taken from the supplement of paper PMC11417369.
This is one part of the list.

System: PfAP2-HC AP2 domain (GST-tagged)
Test: gcPBM binding intensity (ln(normalized median fluorescence intensity)); higher = stronger DNA binding
Procedure, shortened: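 GST-tagged P. falciparum DNA-binding domains produced in E. coli were incubated for 1 h on an Agilent 4 × 180k array of primer-extended double-stranded 36-bp intergenic genomic probes with negative controls. Binding intensity is the highest Masliner-normalised natural-log median intensity across replicate spots of either probe orientation, with bound protein detected by Alexa488 anti-GST antibody at 488 nm.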

**Q.** Which “gcPBM binding intensity (ln)” value does the source give for “AAAAAAAAAAAAAAAACACACATTTAGCAATCTACA [CACACA_site3706]” here?
**A.** 9.6

**Q.** Which “gcPBM binding intensity (ln)” value does the source give for “TACATATATTATACATGTACACATTTATACATATCG [XGTACX_site2866]” here?
**A.** 9.84

**Q.** How did the “gcPBM binding intensity (ln)” value turn out when “ATATGATCATACTGTGCATGTTAATGCAAATTTTAT [TGCATGCA_site984]” was run?
**A.** 9.75

**Q.** How did the “gcPBM binding intensity (ln)” value turn out when “TTAATATAATAAAATCGTACAAATAAAATATAAAAT [XGTACX_site8730]” was run?
**A.** 9.73

**Q.** With “AAAAATGAGAAACACACACACATATATATATATATA [CACACA_site2228]” as the sequence, how does the “gcPBM binding intensity (ln)” value read?
**A.** 10.1

**Q.** “TCTTTAAATCGAGTGTTAAATAATATAATATAAAAA [CACACA_negctrl_site1507]” was tested. Which “gcPBM binding intensity (ln)” value did it give?
**A.** 9.34

**Q.** Which “gcPBM binding intensity (ln)” value does the source give for “AACCAATATGAGTATACACACATAAATATAAATATA [CACACA_site5968]” here?
**A.** 10.1

**Q.** Which “gcPBM binding intensity (ln)” value does the source give for “AAAAAAAAAAAAGATACACACAAAAATGGATATATA [CACACA_site7069]” here?
**A.** 9.9

**Q.** Which “gcPBM binding intensity (ln)” value does the source give for “ATATATATATATCACCGTACTTATATAATAACATGA [XGTACX_site4398]” here?
**A.** 9.67

**Q.** With “TTTTTTTTTTATTTTTGTACATATATTTCAGTATTA [XGTACX_site8396]” as the sequence, how does the “gcPBM binding intensity (ln)” value read?
**A.** 9.67

**Q.** Which “gcPBM binding intensity (ln)” value does the source give for TAATTATTCTATTAAGTGCATATATTTTTAAAAAGA here?
**A.** 9.32

**Q.** With “ATTTTTATTAAAATATGTACGTATTTTACTCATACA [XGTACX_site5330]” as the sequence, how does the “gcPBM binding intensity (ln)” value read?
**A.** 9.72

**Q.** “ATACAGAAAAAAAACACACACACATAATATACATAC [CACACA_site1933]” was tested. Which “gcPBM binding intensity (ln)” value did it give?
**A.** 10.8

**Q.** With “ATAATATTCGAGTGTGCACACAAACATACATATATA [CACACA_site3396]” as the sequence, how does the “gcPBM binding intensity (ln)” value read?
**A.** 10.3

**Q.** “ACAGATATATTTATTTGTACATATCACCAAAATGGA [XGTACX_site5644]” was tested. Which “gcPBM binding intensity (ln)” value did it give?
**A.** 9.49

**Q.** With “TACAGATATTATTGCACACATATAAAATACCCCCAA [CACACA_site6014]” as the sequence, how does the “gcPBM binding intensity (ln)” value read?
**A.** 10.3

**Q.** “TTACGTTATATACATACACACCCACGCACAAAAAAA [CACACA_site6537]” was tested. Which “gcPBM binding intensity (ln)” value did it give?
**A.** 10.6

**Q.** How did the “gcPBM binding intensity (ln)” value turn out when “ATTAAATACTTCGATTGTACAATTTTTTTTTTTTTT [XGTACX_site832]” was run?
**A.** 9.65

**Q.** “TAAGAATAATGACATAGTACAATTTAATAGATCTAA [XGTACX_site3670]” was tested. Which “gcPBM binding intensity (ln)” value did it give?
**A.** 9.68

**Q.** With “TTTTCAAAATAATATTATATCAAATGCTAAAAAGAA [TGCATGCA_negctrl_site588]” as the sequence, how does the “gcPBM binding intensity (ln)” value read?
**A.** 9.43

**Q.** For “TAATATTTATGTTAATGTACAAAAAAACAAAACAAA [XGTACX_site301]”, which “gcPBM binding intensity (ln)” value is on record?
**A.** 9.64

**Q.** For “GTATGTATATATGTATGTACTTATGTATCATTATTA [XGTACX_site2438]”, which “gcPBM binding intensity (ln)” value is on record?
**A.** 9.74

**Q.** For “ATAATATATATTAAACGTACATAAAATAATTATGGA [XGTACX_site1670]”, which “gcPBM binding intensity (ln)” value is on record?
**A.** 9.81

**Q.** For “AATTAAATTAGAAGCACACACATATTTATATTTATA [CACACA_site7552]”, which “gcPBM binding intensity (ln)” value is on record?
**A.** 10

**Q.** How did the “gcPBM binding intensity (ln)” value turn out when “GTATATATTTAAACACGTACACAAAACCCAAAAAAT [XGTACX_site8110]” was run?
**A.** 9.95

**Q.** “ATACACTCACTCACACGTACAGACAACGGACGATCA [XGTACX_site1097]” was tested. Which “gcPBM binding intensity (ln)” value did it give?
**A.** 9.72

**Q.** With “GAAAAAAAAAAAAAAAAAAAAAGGAAAAAAGTGAAA [CACACA_negctrl_site996]” as the sequence, how does the “gcPBM binding intensity (ln)” value read?
**A.** 9.38

**Q.** With “ATAAAACAATAAAATTGTACATAAATTGATTATACT [XGTACX_site6723]” as the sequence, how does the “gcPBM binding intensity (ln)” value read?
**A.** 9.78

**Q.** Which “gcPBM binding intensity (ln)” value does the source give for “ACGTTTACGTTATTATGTACGTAATATATCATACCT [XGTACX_site5006]” here?
**A.** 9.64

**Q.** Which “gcPBM binding intensity (ln)” value does the source give for “GAATAAATAGACGAGTGTACTTTTTTTTAAAAAAAA [XGTACX_site7880]” here?
**A.** 9.65

**Q.** Which “gcPBM binding intensity (ln)” value does the source give for “TGAGAGTTCTCATATGCACACAAAAAACTTTCATTT [CACACA_site7898]” here?
**A.** 9.67

**Q.** With “TTGCAACTCTTCAATCGTACACATTATTTATTATAT [XGTACX_site1377]” as the sequence, how does the “gcPBM binding intensity (ln)” value read?
**A.** 9.89

**Q.** With “TACATATACATATACACACACACACCCAAATAAATA [CACACA_site1344]” as the sequence, how does the “gcPBM binding intensity (ln)” value read?
**A.** 10.5

**Q.** For “AATAATAACACCGTGGATACACAATAACAAAGAACT [CACACA_negctrl_site532]”, which “gcPBM binding intensity (ln)” value is on record?
**A.** 10.2

**Q.** Which “gcPBM binding intensity (ln)” value does the source give for “AAATATTTTTTTTCTACACACATACAAATATATATT [CACACA_site5325]” here?
**A.** 9.93

**Q.** With “TTTCATTTAGCTTTTACACACTATATATCATTGATT [CACACA_site6158]” as the sequence, how does the “gcPBM binding intensity (ln)” value read?
**A.** 9.91

**Q.** Which “gcPBM binding intensity (ln)” value does the source give for “AAATAAAAAAGTAGTACACACTTCACGATATTTTTT [CACACA_site6015]” here?
**A.** 9.87

**Q.** Which “gcPBM binding intensity (ln)” value does the source give for “AAAAATATAAACTGCACACACACAAAAAAAGAAAAA [CACACA_site648]” here?
**A.** 10.8

**Q.** How did the “gcPBM binding intensity (ln)” value turn out when “TTTTTTTTAAAAAACACACACCTAAACAAGATATTT [CACACA_site6541]” was run?
**A.** 9.91

**Q.** For “CATATTTTTAAATACACACACATAAAAAAAAAAAAA [CACACA_site1095]”, which “gcPBM binding intensity (ln)” value is on record?
**A.** 10.2

**Q.** With “AATCTAATATAATGCACACATAAAAAAAAAATCAAA [CACACA_site2714]” as the sequence, how does the “gcPBM binding intensity (ln)” value read?
**A.** 9.77

**Q.** “TATATTTACAATAAAACGTTATTTTTTGTTATTTTC [CACACA_negctrl_site612]” was tested. Which “gcPBM binding intensity (ln)” value did it give?
**A.** 9.62

**Q.** With TTATTATAATCATTAGTGCATATATTATTTTTATAT as the sequence, how does the “gcPBM binding intensity (ln)” value read?
**A.** 9.66

**Q.** With “TATATACATATATGTACACACATTACAGATGTACAT [CACACA_site966]” as the sequence, how does the “gcPBM binding intensity (ln)” value read?
**A.** 9.99

**Q.** With “AAAAAAAAAAAAAAAAGTACAAATAAAAAAAAAATA [XGTACX_site4814]” as the sequence, how does the “gcPBM binding intensity (ln)” value read?
**A.** 9.66
